The values below come from ChEMBL document CHEMBL1201862, “PubChem BioAssay data set” (2004).

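Assay format: 96-well plates, 48-hour exposure. The concentration for 50% growth inhibition is given as GI50.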 Activity calls are given as the source filed them. No stated cut-off is given here; in the data, active = GI50 up to about 1.1 µM and inactive = higher. Where only a bound is given, the exact number is not on record here.

The subject of the experiment is NCI-H322M. Briefly: inhibition of tumour cell growth, NCI panel, 48 h.
Take `C/C(=N\N=C(/[SeH])N1CC2CCC(CC2)C1)c1ccccn1`: the GI50 is active: 0.206 µM.
As for `Cc1ccc(S(=O)(=O)Nc2cc(O)nc3c2CCC3)cc1`, the GI50 was inactive: > 100 µM.
Turning to `Cc1cc(O)c2c(c1)OC1(C)CCC3C(C)(C)CCCC34COC2C14` (configuration not stated), the GI50 was active: 0.0291 µM.
As for `CC(C)C(=O)C(C)(C)CCc1ccccn1`, the GI50 is inactive: > 100 µM.
In the case of `O=C1c2ccccc2C(=O)c2c(NC(=O)c3ccc4c5c(ncnc35)-c3ccccc3C4=O)cccc21`, the GI50 was inactive: > 100 µM.
Regarding `Cn1c2ccccc2c(=O)c2ccc(Cl)cc21`, the GI50 was inactive: > 10 µM.
Regarding `CCCn1c(SCC)c2ccccc2c1-c1nc(F)nc(F)n1`, the GI50 is inactive: > 100 µM.
With `Cc1ccc(-n2nnc(C#N)c2O)cc1`, the GI50 was inactive: > 100 µM.
In the case of `CCOP(=O)(OCC)/C(C#N)=C/c1cccn1N(C)C`, the GI50 is inactive: > 100 µM.
On to `CCN(CC)c1c(C(=O)/C=C/c2ccccc2)c(-c2ccccc2)nn(C)c1=O`, for which the GI50 is inactive: 5.68 µM.
In the case of `COc1ccc(NCc2cnc3nc(N)nc(N)c3c2C)cc1`, the GI50 is inactive: 6.04 µM.
As to `Cc1ccc(C)c(COCCOCn2c(=O)[nH]c(=O)c3cc(Br)ccc32)c1`, the GI50 is inactive: > 100 µM.
Regarding `O=C1C(NS(=O)(=O)c2ccccc2)=C(N(Cc2ccccc2)Cc2ccccc2)C(=O)c2ccccc21`, the GI50 was inactive: 51.1 µM.
With `CCOC1=C/C(=N\Nc2ccc([N+](=O)[O-])cc2)CCC1`, the GI50 is inactive: > 100 µM.
On to `C(=C\c1cccs1)/c1cccc(/C=C/c2cccs2)n1`, for which the GI50 was inactive: 27.9 µM.
With `NC(=O)COC(=O)c1c(Cl)nc2sccn12`, the GI50 was inactive: > 100 µM.
`CCC(c1ccc(N(C)C)cc1)C1NC(=S)NC1=O` (configuration not stated): the GI50 is inactive: > 100 µM.
Take `Cc1ccc(S(=O)(=O)NC(=O)NC(CC(N)=O)C(=O)O)cc1` (configuration not stated): the GI50 is inactive: > 100 µM.
`O=C1CCC(=O)c2ccccc2N1`: the GI50 was inactive: > 100 µM.
Turning to `Cc1cc2cc3ccccc3cc2c(=O)[nH]1`, the GI50 was inactive: > 10 µM.
As for `COc1cc(C2SCC(=O)N2c2ccc(-n3c(-c4ccccc4)nc4ccccc4c3=O)cc2)ccc1O` (configuration not stated), the figure is inactive: > 100 µM; as for `COc1cc([C@@H]2OC(=O)C3C2C(=O)O[C@H]3c2cc(OC)c(OC)c(OC)c2)cc(OC)c1OC` (some centres not stated), inactive: > 100 µM.
As for `Cc1cc2ncn(CC(=O)O)c2cc1C`, the GI50 was inactive: > 100 µM.
In the case of `O=C1[C@H]2ON(c3ccccc3)C(c3ccccc3)[C@H]2C(=O)N1c1ccc(Cc2ccc(N3C(=O)[C@@H]4ON(c5ccccc5)C(c5ccccc5)[C@@H]4C3=O)cc2)cc1` (some centres not stated), the GI50 is inactive: > 100 µM.
In the case of `Cc1ccc(S(=O)(=O)NC2=NS(=O)(=O)c3cc(C)c(Cl)cc3S2)cc1`, the GI50 is inactive: 46.6 µM.
For the compound `Nc1nc(-c2ccco2)cc(-c2ccc(CO)o2)n1`, the GI50 is inactive: > 100 µM.
Turning to `COC(=O)C[C@H]1CCC2(OCCO2)[C@]1(C)C(=O)OC`, the GI50 was inactive: > 100 µM.
For `CC(=O)C1C(=O)C(C(C)=O)C2C3C=CC(C3)C12` (configuration not stated), the GI50 is inactive: > 100 µM.
As for `Nc1nnc2oc3ccc4ccccc4c3cc1-2`, the GI50 was inactive: 26.1 µM.
Turning to `C=C1C(=O)[C@@]23CC[C@@H]4[C@@]5(C)CCC[C@@]4(OC5=O)[C@@]2(C)CC[C@@H]1C3`, the GI50 is inactive: 4.69 µM.
Turning to `COC1(OC)CC(CO)(CNc2nc(N)nc(Cl)c2/C=N\O)C1`, the GI50 is inactive: 35.6 µM.
As for `O=C1NC2C(O)CCCCC2C12CCCCC2` (configuration not stated), the GI50 is inactive: > 100 µM.
Take `C=CO/N=[N+](\[O-])N(CC)CC`: the GI50 is inactive: > 100 µM.
For the compound `CC(C)C1=CC(=O)C(C)(C2C(O)CC3(C)C4CC=C5C(CCC(OC6OC(CO)C(O)C(O)C6OC6OC(C)C(O)C(O)C6O)C5(C)C)C4(C)C(=O)CC23C)O1` (configuration not stated), the GI50 is inactive: > 100 µM.
For `CCOC(=O)C(C#N)C1=CC(=O)C(=O)c2ccc(O)cc21` (configuration not stated), the GI50 is inactive: > 100 µM.
As for `COc1ccc(OC2(c3cc(OC)ccc3OC)OC(=O)c3ccccc32)cc1` (configuration not stated), the figure is inactive: > 100 µM.
As for `COC(=O)c1oc([N+](=O)[O-])c(Cl)c1Cl`, the figure is inactive: 13.2 µM; as for `CC(C)N1CCCOC(c2ccc([N+](=O)[O-])cc2)O1` (configuration not stated), inactive: > 100 µM; as for `Cc1ccc(Cc2n[nH]c(=O)n2N2C(=O)c3ccccc3C2=O)cc1`, inactive: > 100 µM.
As to `CC(=O)N1c2ccccc2C2=CC3C4C(=O)N(c5ccccc5)C(=O)C4C21C1C(=O)N(c2ccccc2)C(=O)C31` (configuration not stated), the GI50 was inactive: 34.2 µM.
With `COc1ccc(-c2cc(-c3ccc(Nc4ccnc5cc(C(F)(F)F)ccc45)cc3)nc(N)c2C#N)c2ccccc12`, the GI50 is inactive: 86.9 µM.
For `COc1ccc(-c2coc3c4c(ccc3c2=O)OCO4)cc1OC`, the GI50 is inactive: > 100 µM.
For `COc1ccc2ccccc2c1CN1CCOCCOCCN(Cc2c(OC)ccc3ccccc23)CCOCCOCC1`, the GI50 is inactive: > 71.6 µM.
Take `CC(=O)OC1=CC2=CC[C@H]3[C@@H]4CCC(=O)[C@@]4(C)CC(=O)[C@]3(S)[C@@]2(C)CC1`: the GI50 was inactive: > 100 µM.
The result for `CCOC(=O)C(NC(=O)c1ccccc1)(N1CCN(c2cc3c(cc2F)c(=O)c(C(=O)O)cn3CC)CC1)C(F)(F)F` (configuration not stated) reads inactive: 50.6 µM; that for `COC(=O)C(CCc1ccccc1I)C1=CCC2(CC1)OCCO2` (configuration not stated), inactive: 48.9 µM; that for `CC1=NOC2(C1)/C(=N/O)CCC/C2=N\O` (configuration not stated), inactive: 95.3 µM.
On to `COc1ccc(C2C(Cl)C(=O)N2NC(=O)c2ccc(N)cc2)cc1OC` (configuration not stated), for which the GI50 is inactive: 14.7 µM.
With `O=C(Nc1ccc(Cl)c(Cl)c1)N1N=C2c3ccccc3CCC2C1c1ccc(Cl)cc1` (configuration not stated), the GI50 was inactive: > 100 µM.
Consider `OCC1OC(c2ccccc2)CC1O` (configuration not stated), for which the GI50 is inactive: > 100 µM.
For the compound `Cc1nc(C)c(N2CCN(C(=O)O)CC2)c(O)n1`, the GI50 is inactive: > 100 µM.
The result for `CCCCCCCCCCCCCCCCCCOCC(O)COP(=O)(O)OCC1OC(n2ccc(N)nc2=O)C(O)C1O` (configuration not stated) reads inactive: 19.8 µM; that for `Cc1nnc2n1-c1ccccc1-c1[nH]c3ccccc3c1C2`, inactive: > 100 µM; that for `CC[n+]1c(/C=C/c2ccc(N(CCCl)CCCl)cc2)ccc2cc(NC(=O)/C=C/c3ccccc3)ccc21`, active: 1 µM.
As to `CCc1cc2c(oc3cc(C)ccc32)c(=O)n1C`, the GI50 is inactive: > 10 µM.
The result for `CC(=O)OCC1OC(n2c(-c3ccccc3)c(C(C)=O)c(-c3ccc(Cl)cc3)c(C#N)c2=S)C(OC(C)=O)C(OC(C)=O)C1OC(C)=O` (configuration not stated) reads inactive: > 100 µM; that for `FC(F)(F)c1ccc2nc(Nc3ccc(Cl)c(Cl)c3)c(-c3ccccc3)nc2c1`, inactive: 54.8 µM; that for `CN1CCN(C(=S)N(C(=O)c2ccco2)C2CCCCC2)CC1`, inactive: > 100 µM.
As for `CCOC(=O)c1ccc(NC(NC(=O)CC)(C(F)(F)F)C(F)(F)F)cc1`, the figure is inactive: > 100 µM; as for `CCN(CC)P1(=S)Oc2ccc3ccccc3c2-c2c(ccc3ccccc23)O1`, inactive: > 100 µM.
For `O=C(Cc1ccc(O)c(O)c1)NCc1c[nH]c2ccccc12`, the GI50 was inactive: 69.8 µM.
As to `Nc1nc(N)c(N=O)c(Nc2ccc(O)cc2)n1`, the GI50 is inactive: > 73.8 µM.
As for `CN(C)c1ccc(C(=NN)c2ccc(N(C)C)cc2)cc1`, the figure is inactive: 2.99 µM.
In the case of `COc1ccc2c(c1)CC[C@@H]1C2CC[C@]2(C)C(=N\O)/C(=N/O)CC12` (some centres not stated), the GI50 is inactive: 15.6 µM.
Regarding `CC1(C)OC(=O)C(=C2CCC(C(=O)Nc3cccc(C(F)(F)F)c3)N2)C(=O)O1` (configuration not stated), the GI50 was inactive: > 100 µM.
For the compound `CN(C)CCOc1cccc2c1C(=O)c1ccccc1C2=O`, the GI50 was inactive: 10.5 µM.
As for `O=C(NN1C(=O)c2ccccc2C1=O)c1ccccc1Nc1ccccc1C(=O)NN1C(=O)c2ccccc2C1=O`, the GI50 was inactive: > 100 µM.
The result for `CC(=O)OCC1OC(Sc2ccccn2)C=CC1OC(C)=O` (configuration not stated) reads inactive: > 100 µM.
In the case of `COc1cc(C2c3cc4c(cc3OC3(OC)COC(=O)C23)OCO4)cc(OC)c1OC` (configuration not stated), the GI50 is active: 0.4 µM.
In the case of `NC(=S)Nc1ccc2c(c1)oc1ccccc12`, the GI50 was inactive: > 100 µM.
The result for `O=C(C/C(=N\NC(=O)C[n+]1ccccc1)C(=O)Nc1nc2ccc([N+](=O)[O-])cc2s1)CC(c1ccccc1)c1c(O)c2ccccc2oc1=O` (configuration not stated) reads inactive: > 100 µM; that for `CC(C)(C)n1[nH]c(=O)n(C(C)(C)C)c1=O`, inactive: > 100 µM.
With `Cc1cc(NS(=O)(=O)c2ccc(Nc3c4ccccc4nc4ccc(C(=O)Nc5ccc(S(=O)(=O)N=C(N)N)cc5)cc34)cc2)no1`, the GI50 was inactive: > 100 µM.
With `CC(C)(C)c1ccc2c(c1)OP1(Oc3cccc4cccnc34)(O2)Oc2ccc(C(C)(C)C)cc2O1`, the GI50 is inactive: 5.43 µM.
As for `O=c1oc2ccccc2cc1/C=N/N1C(=S)N(c2ccccc2)C(=N\c2ccccc2)/C1=N/c1ccccc1`, the figure is inactive: > 100 µM.
As for `CC(=O)NC1C(OCc2ccccc2)OC(CO)C(O)C1OCC(=O)NC(C)C(=O)NC(CCC(=O)NCCCCCC(=O)Nc1ccc2c(c1)CN1C(=O)c3ccccc3C1=N2)C(N)=O` (configuration not stated), the figure is inactive: 25.2 µM; as for `NC(=O)C(=O)N/N=C1\C(=O)N(c2ccc(Cl)cc2Cl)C(=O)C1C(=O)Nc1ccc(Cl)cc1Cl` (configuration not stated), inactive: > 100 µM; as for `CCCCSc1nsc(N(C(=O)c2ccccc2)C(=O)c2ccccc2)n1`, inactive: 35.6 µM.
Turning to `COc1cc([N+](=O)[O-])cc2c1NC(=O)C2(C)SC` (configuration not stated), the GI50 was inactive: > 100 µM.
Turning to `CC(=O)OC1CC2C(C)(C)OC(=O)CC(OC(C)=O)[C@]2(C)C2CCC3(C)C(=CCC3c3ccoc3)[C@]12C` (some centres not stated), the GI50 was inactive: 29 µM.
In the case of `CNC(=O)OCc1nc([S+](C)[O-])n(C)c1COC(=O)NC` (configuration not stated), the GI50 was inactive: > 100 µM.
Regarding `CC(N)Cc1ccc(Cl)cc1` (configuration not stated), the GI50 is inactive: > 100 µM.
